# This is one part of the list.
# Key:
# Test in all cases: glycan array binding signal (z-score within array); higher = stronger binding
# Conditions in all cases: glycan notation: IUPAC condensed, linker removed
# [1] = target: Man(a1-3)[Man(a1-6)]Man(a1-6)[Man(a1-3)]Man
# Outline: (§1)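 Glycan array data came from 3228 arrays in the Consortium for Functional Glycomics database, and only arrays with an available protein sequence were kept. Glycan names were put into IUPAC-condensed notation, and columns mapping to the same glycan were averaged. The binding signal is a within-array Z-score, averaged across arrays of one protein sequence run at different concentrations or buffers and across linkers. A negative Z-score can be read as non-binding.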
# [2] = target: Man(a1-3)[Man(a1-6)]Man(a1-6)[Man(a1-3)]Man(b1-4)GlcNAc(b1-4)GlcNAc
# Outline: as §1
# [3] = target: Man(a1-3)[Man(a1-6)]Man(b1-4)GlcNAc(b1-4)GlcNAc
# Outline: as §1
# [4] = target: Man(a1-3)[Man(a1-6)]Man(b1-4)GlcNAc(b1-4)[Fuc(a1-6)]GlcNAc
# Outline: as §1
# Man(a1-6)Man = target: Man(a1-6)Man
# Outline: as §1
# Man(b1-4)GlcNAc = target: Man(b1-4)GlcNAc
# Outline: as §1
# MurNAc(b1-4)GlcNAc = target: MurNAc(b1-4)GlcNAc
# Outline: as §1
# Neu5Ac(a2-3)Gal = target: Neu5Ac(a2-3)Gal
# Outline: as §1
# [5] = target: Neu5Ac(a2-3)Gal(b1-3)GalNAc
# Outline: as §1
# [6] = target: Neu5Ac(a2-3)Gal(b1-3)GalNAc(b1-3)Gal(a1-4)Gal(b1-4)Glc
# Outline: as §1
# [7] = target: Neu5Ac(a2-3)Gal(b1-3)GalNAc(b1-4)[Neu5Ac(a2-3)]Gal(b1-4)Glc
# Outline: as §1
# [8] = target: Neu5Ac(a2-3)Gal(b1-3)GalNAc(b1-4)[Neu5Ac(a2-8)Neu5Ac(a2-3)]Gal(b1-4)Glc
# Outline: as §1
# [9] = target: Neu5Ac(a2-3)Gal(b1-3)GalNAc6S
# Outline: as §1
# [10] = target: Neu5Ac(a2-3)Gal(b1-3)GlcNAc
# Outline: as §1
# [11] = target: Neu5Ac(a2-3)Gal(b1-3)GlcNAc(b1-2)Man
# Outline: as §1
# [12] = target: Neu5Ac(a2-3)Gal(b1-3)GlcNAc(b1-2)Man(a1-3)[GlcNAc(b1-4)][Neu5Ac(a2-3)Gal(b1-3)GlcNAc(b1-2)Man(a1-6)]Man(b1-4)GlcNAc(b1-4)GlcNAc
# Outline: as §1
# [13] = target: Neu5Ac(a2-3)Gal(b1-3)GlcNAc(b1-2)Man(a1-3)[Neu5Ac(a2-3)Gal(b1-3)GlcNAc(b1-2)Man(a1-6)]Man(b1-4)GlcNAc(b1-4)GlcNAc
# Outline: as §1
# [14] = target: Neu5Ac(a2-3)Gal(b1-3)GlcNAc(b1-3)Gal(b1-3)GlcNAc
# Outline: as §1
# [15] = target: Neu5Ac(a2-3)Gal(b1-3)GlcNAc(b1-3)Gal(b1-4)GlcNAc
# Outline: as §1
# [16] = target: Neu5Ac(a2-3)Gal(b1-3)GlcNAc(b1-3)GalNAc
# Outline: as §1
# [17] = target: Neu5Ac(a2-3)Gal(b1-3)GlcNAc(b1-4)Gal(b1-4)Glc
# Outline: as §1
# [18] = target: Neu5Ac(a2-3)Gal(b1-3)GlcNAc(b1-6)GalNAc
# Outline: as §1
# [19] = target: Neu5Ac(a2-3)Gal(b1-3)GlcNAc6S
# Outline: as §1
# [20] = target: Neu5Ac(a2-3)Gal(b1-3)[Fuc(a1-4)]GlcNAc
# Outline: as §1
# [21] = target: Neu5Ac(a2-3)Gal(b1-3)[Fuc(a1-4)]GlcNAc(b1-3)Gal(b1-3)[Fuc(a1-4)]GlcNAc
# Outline: as §1
# [22] = target: Neu5Ac(a2-3)Gal(b1-3)[Fuc(a1-4)]GlcNAc(b1-3)Gal(b1-4)[Fuc(a1-3)]GlcNAc
# Outline: as §1
# [23] = target: Neu5Ac(a2-3)Gal(b1-3)[GlcNAc(b1-6)]GalNAc
# Outline: as §1
# [24] = target: Neu5Ac(a2-3)Gal(b1-3)[Neu5Ac(a2-6)]GalNAc
# Outline: as §1
# [25] = target: Neu5Ac(a2-3)Gal(b1-3)[Neu5Ac(a2-6)]GlcNAc(b1-3)[Fuc(a1-3)[Gal(b1-4)]GlcNAc(b1-6)]Gal(b1-4)Glc
# Outline: as §1
# [26] = target: Neu5Ac(a2-3)Gal(b1-3)]Neu5Ac(a2-3)Gal(b1-4)]GlcNAc
# Outline: as §1
# Neu5Ac(a2-3)Gal(b1-4)Glc = target: Neu5Ac(a2-3)Gal(b1-4)Glc
# Outline: as §1
# [27] = target: Neu5Ac(a2-3)Gal(b1-4)GlcNAc
# Outline: as §1
# [28] = target: Neu5Ac(a2-3)Gal(b1-4)GlcNAc(b1-2)Man
# Outline: as §1
# [29] = target: Neu5Ac(a2-3)Gal(b1-4)GlcNAc(b1-2)Man(a1-3)[GlcNAc(b1-4)][Neu5Ac(a2-3)Gal(b1-4)GlcNAc(b1-2)Man(a1-6)]Man(b1-4)GlcNAc(b1-4)GlcNAc
# Outline: as §1
# [30] = target: Neu5Ac(a2-3)Gal(b1-4)GlcNAc(b1-2)Man(a1-3)[Neu5Ac(a2-3)Gal(b1-4)GlcNAc(b1-2)Man(a1-6)]Man(b1-4)GlcNAc(b1-4)GlcNAc
# Outline: as §1
# [31] = target: Neu5Ac(a2-3)Gal(b1-4)GlcNAc(b1-2)Man(a1-3)[Neu5Ac(a2-3)Gal(b1-4)GlcNAc(b1-2)Man(a1-6)]Man(b1-4)GlcNAc(b1-4)[Fuc(a1-6)]GlcNAc
# Outline: as §1
# [32] = target: Neu5Ac(a2-3)Gal(b1-4)GlcNAc(b1-2)Man(a1-3)[Neu5Ac(a2-6)Gal(b1-4)GlcNAc(b1-2)Man(a1-6)]Man(b1-4)GlcNAc(b1-4)GlcNAc
# Outline: as §1
# [33] = target: Neu5Ac(a2-3)Gal(b1-4)GlcNAc(b1-2)[Neu5Ac(a2-3)Gal(b1-4)GlcNAc(b1-4)]Man(a1-3)[GlcNAc(b1-4)][Neu5Ac(a2-3)Gal(b1-4)GlcNAc(b1-2)[Neu5Ac(a2-3)Gal(b1-4)GlcNAc(b1-6)]Man(a1-6)]Man(b1-4)GlcNAc(b1-4)GlcNAc
# Outline: as §1
binder,measurement,setting,value
PX14375l-pdi-526-25-526 (Parabacteroides distasonis) (protein) DEEPKSTLTDVAYYKTQSQMESNVNYLYRTGAIGSYVDFGSAYIGPFASIQEELTGYFSNSYEGQEIVCRYTRELTRQQNTMQLASKMDKVWDDCYRGINVANGAIKHMPEVPMDQATADRLTAEAKFFRAFNYFYLVKTFGAVPFYTDPYELAENMELPRTETSTIYNQIESDLKDAMNVLPEATFAANGHRITKYVAAMTLTDVYMYQHKYAEAAETVRIVVNSNHKLTTNDDLAMNSAFNKLRSTDDLDEAIYAYEYDNQISPSNWLPTYAFDGDASSNGLFGTYAITQKVHGPNDRYLNIYESNDLRRQPNQFYHWTYTNPKTGKVWNSVGNAACCWYYYDEDALLTTGRGTKDWNVYRYAEALLDAAESIAQSTGVTAEAAGYLAQVKARANMEGKTAAEIASSLQSMGKQAFIEECWTERLRELPLEFKMWDMCVRTGMFPNISETTPGQVTYIPLVGAKNASGATIKESDLLWPLSVNEIQRNPSLTQNEGYSAK,glycan array binding signal (z-score),[1],-0.234
same,glycan array binding signal (z-score),[2],-0.079
same,glycan array binding signal (z-score),[3],-0.157
same,glycan array binding signal (z-score),[4],-0.201
same,glycan array binding signal (z-score),Man(a1-6)Man,0.113
same,glycan array binding signal (z-score),Man(b1-4)GlcNAc,-0.174
same,glycan array binding signal (z-score),MurNAc(b1-4)GlcNAc,0.008
same,glycan array binding signal (z-score),Neu5Ac(a2-3)Gal,-0.136
same,glycan array binding signal (z-score),[5],-0.208
same,glycan array binding signal (z-score),[6],-0.092
same,glycan array binding signal (z-score),[7],-0.257
same,glycan array binding signal (z-score),[8],-0.395
same,glycan array binding signal (z-score),[9],-0.238
same,glycan array binding signal (z-score),[10],-0.206
same,glycan array binding signal (z-score),[11],0.616
same,glycan array binding signal (z-score),[12],-0.457
same,glycan array binding signal (z-score),[13],-0.041
same,glycan array binding signal (z-score),[14],-0.05
same,glycan array binding signal (z-score),[15],-0.281
same,glycan array binding signal (z-score),[16],-0.043
same,glycan array binding signal (z-score),[17],-0.322
same,glycan array binding signal (z-score),[18],-0.249
same,glycan array binding signal (z-score),[19],0.085
same,glycan array binding signal (z-score),[20],0.125
same,glycan array binding signal (z-score),[21],-0.106
same,glycan array binding signal (z-score),[22],0.136
same,glycan array binding signal (z-score),[23],-0.275
same,glycan array binding signal (z-score),[24],-0.151
same,glycan array binding signal (z-score),[25],-0.409
same,glycan array binding signal (z-score),[26],-0.23
same,glycan array binding signal (z-score),Neu5Ac(a2-3)Gal(b1-4)Glc,-0.284
same,glycan array binding signal (z-score),[27],-0.181
same,glycan array binding signal (z-score),[28],-0.302
same,glycan array binding signal (z-score),[29],-0.214
same,glycan array binding signal (z-score),[30],-0.139
same,glycan array binding signal (z-score),[31],0.098
same,glycan array binding signal (z-score),[32],-0.134
same,glycan array binding signal (z-score),[33],-0.203

# From the supplement of paper PMC8728848
